Results taken from PMC12820563, “FoxP3 forms a head-to-head dimer in vivo and stabilizes its multimerization on adjacent microsatellites”.
The other results are listed elsewhere or left out.

Biological target: T1, MBP-FoxP1dN (Mus musculus, UniProt P58462 326-579)
T1 sequence: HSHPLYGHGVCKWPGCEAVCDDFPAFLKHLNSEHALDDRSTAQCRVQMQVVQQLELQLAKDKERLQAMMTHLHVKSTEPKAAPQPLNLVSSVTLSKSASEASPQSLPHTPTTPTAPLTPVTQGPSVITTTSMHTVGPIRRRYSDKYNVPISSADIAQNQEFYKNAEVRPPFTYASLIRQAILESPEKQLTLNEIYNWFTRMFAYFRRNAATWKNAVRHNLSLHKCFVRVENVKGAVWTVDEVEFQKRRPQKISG
Assay: PD-seq (MBP pull-down with sequencing); 20 mM Tris-HCl pH 7.5, 100 mM NaCl, 1.5 mM MgCl2, 0.4 uM protein, 0.1 uM dsDNA library, 30 min, room temperature, amylose pull-down; high values mean tight binding
Details: protein: recombinant; tags: His6-MBP; chain copies: 2; dsDNA, one strand shown
Method in brief: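 Binding is the reads-per-million enrichment of pull-down relative to input, pooled across replicates. For this, 0.4 µM His6-MBP-tagged mouse FoxP3 or FoxP1 fragment lacking the N-terminus, made in E. coli, was incubated with 0.1 µM Klenow-filled double-stranded degenerate DNA library for 30 min at room temperature in Tris pH 7.5 buffer with NaCl and MgCl2. Complexes bound to amylose resin were washed three times before proteinase K released the DNA for PCR barcoding and Illumina sequencing.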

Sequence	binding signal
GATGATTGTTCTCCCAGCTGATGAATTCTCTTCATCGAGTAAACAAATTTTCCTAATCTTTCTGTTCAAGCGCCATCTAC	0.886 RPM ratio (pull-down/input)
GATGATTGTTCTCCCAGCTGATGAATTAAATGCATCGAGTAAACAAATTTTCCTAATCTTTCTGTTCAAGCGCCATCTAC	1.69 RPM ratio (pull-down/input)
GATGATTGTTCTCCCAGCTGATGAATTCCGTAGCTCGAGTAAACAAATTTTCCTAATCTTTCTGTTCAAGCGCCATCTAC	0.761 RPM ratio (pull-down/input)
GATGATTGTTCTCCCAGCTGATGAATTGAAGCAGTCGAGTAAACAAATTTTCCTAATCTTTCTGTTCAAGCGCCATCTAC	0.823 RPM ratio (pull-down/input)
GATGATTGTTCTCCCAGCTGATGAATTGTATAGTTCGAGTAAACAAATTTTCCTAATCTTTCTGTTCAAGCGCCATCTAC	1.18 RPM ratio (pull-down/input)
GATGATTGTTCTCCCAGCTGATGAATTGGCGCGATCGAGTAAACAAATTTTCCTAATCTTTCTGTTCAAGCGCCATCTAC	0.908 RPM ratio (pull-down/input)
GATGATTGTTCTCCCAGCTGATGAATTCCCGTCTTCGAGTAAACAAATTTTCCTAATCTTTCTGTTCAAGCGCCATCTAC	0.799 RPM ratio (pull-down/input)
GATGATTGTTCTCCCAGCTGATGAATTTTCCTTCTCGAGTAAACAAATTTTCCTAATCTTTCTGTTCAAGCGCCATCTAC	0.887 RPM ratio (pull-down/input)
GATGATTGTTCTCCCAGCTGATGAATTGGTTTCATCGAGTAAACAAATTTTCCTAATCTTTCTGTTCAAGCGCCATCTAC	1.08 RPM ratio (pull-down/input)
GATGATTGTTCTCCCAGCTGATGAATTAACAGTATCGAGTAAACAAATTTTCCTAATCTTTCTGTTCAAGCGCCATCTAC	0.997 RPM ratio (pull-down/input)
GATGATTGTTCTCCCAGCTGATGAATTGCACAACTCGAGTAAACAAATTTTCCTAATCTTTCTGTTCAAGCGCCATCTAC	1.25 RPM ratio (pull-down/input)
GATGATTGTTCTCCCAGCTGATGAATTATGTACTTCGAGTAAACAAATTTTCCTAATCTTTCTGTTCAAGCGCCATCTAC	1.26 RPM ratio (pull-down/input)
GATGATTGTTCTCCCAGCTGATGAATTTAGTGCTTCGAGTAAACAAATTTTCCTAATCTTTCTGTTCAAGCGCCATCTAC	0.994 RPM ratio (pull-down/input)
GATGATTGTTCTCCCAGCTGATGAATTAGTCCGCTCGAGTAAACAAATTTTCCTAATCTTTCTGTTCAAGCGCCATCTAC	0.791 RPM ratio (pull-down/input)
GATGATTGTTCTCCCAGCTGATGAATTGCCTTAATCGAGTAAACAAATTTTCCTAATCTTTCTGTTCAAGCGCCATCTAC	1.08 RPM ratio (pull-down/input)
GATGATTGTTCTCCCAGCTGATGAATTTTGCCTTTCGAGTAAACAAATTTTCCTAATCTTTCTGTTCAAGCGCCATCTAC	0.949 RPM ratio (pull-down/input)
GATGATTGTTCTCCCAGCTGATGAATTAGGACCTTCGAGTAAACAAATTTTCCTAATCTTTCTGTTCAAGCGCCATCTAC	0.839 RPM ratio (pull-down/input)
GATGATTGTTCTCCCAGCTGATGAATTCAGTGAATCGAGTAAACAAATTTTCCTAATCTTTCTGTTCAAGCGCCATCTAC	0.944 RPM ratio (pull-down/input)
GATGATTGTTCTCCCAGCTGATGAATTCGAATTCTCGAGTAAACAAATTTTCCTAATCTTTCTGTTCAAGCGCCATCTAC	0.733 RPM ratio (pull-down/input)
GATGATTGTTCTCCCAGCTGATGAATTGGTCTGATCGAGTAAACAAATTTTCCTAATCTTTCTGTTCAAGCGCCATCTAC	0.895 RPM ratio (pull-down/input)
GATGATTGTTCTCCCAGCTGATGAATTCTCCCAGTCGAGTAAACAAATTTTCCTAATCTTTCTGTTCAAGCGCCATCTAC	0.832 RPM ratio (pull-down/input)

Sequence	binding signal
GATGATTGTTCTCCCAGCTGATGAATTCGCGAGCTCGAGTAAACAAATTTTCCTAATCTTTCTGTTCAAGCGCCATCTAC	0.793 RPM ratio (pull-down/input)
GATGATTGTTCTCCCAGCTGATGAATTCGGGCGGTCGAGTAAACAAATTTTCCTAATCTTTCTGTTCAAGCGCCATCTAC	0.722 RPM ratio (pull-down/input)
GATGATTGTTCTCCCAGCTGATGAATTTCGAAGTTCGAGTAAACAAATTTTCCTAATCTTTCTGTTCAAGCGCCATCTAC	0.82 RPM ratio (pull-down/input)
GATGATTGTTCTCCCAGCTGATGAATTCCGTGCTTCGAGTAAACAAATTTTCCTAATCTTTCTGTTCAAGCGCCATCTAC	0.862 RPM ratio (pull-down/input)
GATGATTGTTCTCCCAGCTGATGAATTACCTTTATCGAGTAAACAAATTTTCCTAATCTTTCTGTTCAAGCGCCATCTAC	1.05 RPM ratio (pull-down/input)
GATGATTGTTCTCCCAGCTGATGAATTATTCGCTTCGAGTAAACAAATTTTCCTAATCTTTCTGTTCAAGCGCCATCTAC	0.991 RPM ratio (pull-down/input)
GATGATTGTTCTCCCAGCTGATGAATTATCATTCTCGAGTAAACAAATTTTCCTAATCTTTCTGTTCAAGCGCCATCTAC	0.997 RPM ratio (pull-down/input)
GATGATTGTTCTCCCAGCTGATGAATTTGGAGTGTCGAGTAAACAAATTTTCCTAATCTTTCTGTTCAAGCGCCATCTAC	0.878 RPM ratio (pull-down/input)
GATGATTGTTCTCCCAGCTGATGAATTACCTCGTTCGAGTAAACAAATTTTCCTAATCTTTCTGTTCAAGCGCCATCTAC	0.946 RPM ratio (pull-down/input)
GATGATTGTTCTCCCAGCTGATGAATTGGGAGGTTCGAGTAAACAAATTTTCCTAATCTTTCTGTTCAAGCGCCATCTAC	0.78 RPM ratio (pull-down/input)
GATGATTGTTCTCCCAGCTGATGAATTTGTCGTATCGAGTAAACAAATTTTCCTAATCTTTCTGTTCAAGCGCCATCTAC	1.23 RPM ratio (pull-down/input)
GATGATTGTTCTCCCAGCTGATGAATTGCTAAGCTCGAGTAAACAAATTTTCCTAATCTTTCTGTTCAAGCGCCATCTAC	0.999 RPM ratio (pull-down/input)
GATGATTGTTCTCCCAGCTGATGAATTACCGGGCTCGAGTAAACAAATTTTCCTAATCTTTCTGTTCAAGCGCCATCTAC	0.841 RPM ratio (pull-down/input)
GATGATTGTTCTCCCAGCTGATGAATTCGCCTGGTCGAGTAAACAAATTTTCCTAATCTTTCTGTTCAAGCGCCATCTAC	0.731 RPM ratio (pull-down/input)
GATGATTGTTCTCCCAGCTGATGAATTTCACATTTCGAGTAAACAAATTTTCCTAATCTTTCTGTTCAAGCGCCATCTAC	0.877 RPM ratio (pull-down/input)
GATGATTGTTCTCCCAGCTGATGAATTCCCCGAGTCGAGTAAACAAATTTTCCTAATCTTTCTGTTCAAGCGCCATCTAC	0.703 RPM ratio (pull-down/input)
GATGATTGTTCTCCCAGCTGATGAATTATTTCAATCGAGTAAACAAATTTTCCTAATCTTTCTGTTCAAGCGCCATCTAC	1.11 RPM ratio (pull-down/input)
GATGATTGTTCTCCCAGCTGATGAATTGTACATGTCGAGTAAACAAATTTTCCTAATCTTTCTGTTCAAGCGCCATCTAC	1.02 RPM ratio (pull-down/input)
GATGATTGTTCTCCCAGCTGATGAATTTGCAAAATCGAGTAAACAAATTTTCCTAATCTTTCTGTTCAAGCGCCATCTAC	1.13 RPM ratio (pull-down/input)
GATGATTGTTCTCCCAGCTGATGAATTGCGTTGCTCGAGTAAACAAATTTTCCTAATCTTTCTGTTCAAGCGCCATCTAC	1.07 RPM ratio (pull-down/input)
GATGATTGTTCTCCCAGCTGATGAATTGTTTGAGTCGAGTAAACAAATTTTCCTAATCTTTCTGTTCAAGCGCCATCTAC	1.25 RPM ratio (pull-down/input)

Sequence	binding signal
GATGATTGTTCTCCCAGCTGATGAATTCGACTACTCGAGTAAACAAATTTTCCTAATCTTTCTGTTCAAGCGCCATCTAC	0.808 RPM ratio (pull-down/input)
GATGATTGTTCTCCCAGCTGATGAATTACCGACTTCGAGTAAACAAATTTTCCTAATCTTTCTGTTCAAGCGCCATCTAC	0.948 RPM ratio (pull-down/input)
GATGATTGTTCTCCCAGCTGATGAATTTGGGAGATCGAGTAAACAAATTTTCCTAATCTTTCTGTTCAAGCGCCATCTAC	0.793 RPM ratio (pull-down/input)
GATGATTGTTCTCCCAGCTGATGAATTTACACCTTCGAGTAAACAAATTTTCCTAATCTTTCTGTTCAAGCGCCATCTAC	1.33 RPM ratio (pull-down/input)
GATGATTGTTCTCCCAGCTGATGAATTCCCTCTTTCGAGTAAACAAATTTTCCTAATCTTTCTGTTCAAGCGCCATCTAC	0.822 RPM ratio (pull-down/input)
GATGATTGTTCTCCCAGCTGATGAATTTATTGATTCGAGTAAACAAATTTTCCTAATCTTTCTGTTCAAGCGCCATCTAC	1.86 RPM ratio (pull-down/input)
GATGATTGTTCTCCCAGCTGATGAATTTCTTGCCTCGAGTAAACAAATTTTCCTAATCTTTCTGTTCAAGCGCCATCTAC	0.862 RPM ratio (pull-down/input)
GATGATTGTTCTCCCAGCTGATGAATTATCACAGTCGAGTAAACAAATTTTCCTAATCTTTCTGTTCAAGCGCCATCTAC	0.984 RPM ratio (pull-down/input)
GATGATTGTTCTCCCAGCTGATGAATTCGTCTAATCGAGTAAACAAATTTTCCTAATCTTTCTGTTCAAGCGCCATCTAC	0.982 RPM ratio (pull-down/input)
GATGATTGTTCTCCCAGCTGATGAATTACGTAGGTCGAGTAAACAAATTTTCCTAATCTTTCTGTTCAAGCGCCATCTAC	0.883 RPM ratio (pull-down/input)
GATGATTGTTCTCCCAGCTGATGAATTGGTCACATCGAGTAAACAAATTTTCCTAATCTTTCTGTTCAAGCGCCATCTAC	1.12 RPM ratio (pull-down/input)
GATGATTGTTCTCCCAGCTGATGAATTCCACCAGTCGAGTAAACAAATTTTCCTAATCTTTCTGTTCAAGCGCCATCTAC	0.757 RPM ratio (pull-down/input)
GATGATTGTTCTCCCAGCTGATGAATTGCTCGTCTCGAGTAAACAAATTTTCCTAATCTTTCTGTTCAAGCGCCATCTAC	0.898 RPM ratio (pull-down/input)
GATGATTGTTCTCCCAGCTGATGAATTAGGTTGGTCGAGTAAACAAATTTTCCTAATCTTTCTGTTCAAGCGCCATCTAC	0.907 RPM ratio (pull-down/input)
GATGATTGTTCTCCCAGCTGATGAATTCAAACACTCGAGTAAACAAATTTTCCTAATCTTTCTGTTCAAGCGCCATCTAC	1.2 RPM ratio (pull-down/input)
GATGATTGTTCTCCCAGCTGATGAATTGCGGGAGTCGAGTAAACAAATTTTCCTAATCTTTCTGTTCAAGCGCCATCTAC	0.927 RPM ratio (pull-down/input)
GATGATTGTTCTCCCAGCTGATGAATTCCAGTTATCGAGTAAACAAATTTTCCTAATCTTTCTGTTCAAGCGCCATCTAC	0.982 RPM ratio (pull-down/input)
GATGATTGTTCTCCCAGCTGATGAATTAGCAATGTCGAGTAAACAAATTTTCCTAATCTTTCTGTTCAAGCGCCATCTAC	0.985 RPM ratio (pull-down/input)
GATGATTGTTCTCCCAGCTGATGAATTCCAACTCTCGAGTAAACAAATTTTCCTAATCTTTCTGTTCAAGCGCCATCTAC	0.814 RPM ratio (pull-down/input)
GATGATTGTTCTCCCAGCTGATGAATTCTCGAAGTCGAGTAAACAAATTTTCCTAATCTTTCTGTTCAAGCGCCATCTAC	0.777 RPM ratio (pull-down/input)
GATGATTGTTCTCCCAGCTGATGAATTGGTCAAATCGAGTAAACAAATTTTCCTAATCTTTCTGTTCAAGCGCCATCTAC	1.06 RPM ratio (pull-down/input)
